The record followed here is ChEMBL document CHEMBL4888484, “Replenishing the malaria drug discovery pipeline: Screening and hit evaluation of the MMV Hit Generation Library 1 (HGL1) against asexual blood stage Plasmodium falciparum ,using a nano luciferase reporter read-out” (2022).

The campaign covered roughly 150,000 compounds. About 540 (0.36%) showed an effect of 50% or more. This is one part of the list.

The subject of this experiment is Plasmodium falciparum. Description: Primary screen in NF54 nanoGlo assay, in single point, at 2uM, 72h; a lower Z score goes with more inhibition. Particulars: timepoint 72 hour. In kind it is functional, Erythrocyte.
With `O=C(c1ccc(=O)n(Cc2ccc(F)cc2)n1)N1CCCCC1`, the “% Inhibition” value came to 7% and the Z score is reported as -0.96.
As to `OC1CCCC1N1CCc2ccccc2C1` (stereo not drawn), the “% Inhibition” value is -14% and the Z score came to 2.59.
Taken in the same sequence, the figures for `O=S(=O)(NC1CC2CCC1C2)c1ccc2ccccc2c1` (stereo not drawn) were -9% and 1.27.
Regarding `CCOC(=O)c1cnn(-c2cccc(NC(=O)c3ccc4ncsc4c3)c2)c1C(F)(F)F`, the “% Inhibition” value is listed as -5% and the Z score is recorded as 0.53.
Turning to `O=C1CN(C(=O)[C@]2(c3ccccc3)CCCO2)Cc2ccccc2N1`, the “% Inhibition” value amounted to 8% and the Z score is -1.12.
The corresponding values for `C=CC[N+]1(CC#CCOC(c2ccccc2)c2ccccc2)CCOCC1` are -5% and 0.65.
As for `CN(C(=O)[C@@H]1CCCO1)C1CCCCCC1`, the “% Inhibition” value was -6% and the Z score turned out to be 0.83.
Regarding `CC1(C)CCN(C(=O)c2ccc3c(c2)CCCC3=O)CCS1(=O)=O`, the “% Inhibition” value is recorded as -5% and the Z score amounted to 0.62.
Taken in the same sequence, the figures for `O=C(c1ccc2c(c1)CCC2)N1CCC(CN2CCCC2)CC1` were 9% and -1.61.
As for `C[C@@H](C1CC1)N(C)C(=O)Cc1ccc(F)cc1F`, the “% Inhibition” value was 3% and the Z score is reported as -0.47.
With `CCN(CC)c1cc(CCC(=O)NCc2cccc(OC)c2OC)ccn1`, the “% Inhibition” value amounted to 18% and the Z score was -2.13.
For the compound `CN(CCn1cccn1)[C@@H](C(=O)O)c1c(F)cccc1Cl`, the “% Inhibition” value is reported as 9% and the Z score was -1.11.
Regarding `COc1cc(C2Nc3ccc(C)cc3[C@H]3OCC[C@@H]23)cc(Cl)c1OC` (stereo partly drawn), the “% Inhibition” value was -1% and the Z score is listed as 0.2.
Turning to `CC(C)n1ccnc1CN1CCC2(CCC(=O)N(Cc3cccnc3)C2)CC1`, the “% Inhibition” value is on record as -7% and the Z score is given as 1.02.
The corresponding values for `Cn1ncc2c(=O)[nH]c(N3CCC[C@H]3c3ncc[nH]3)nc21` are -5% and 0.95.
Consider `CC(C)(C)OC(=O)NCCN(CCO)C(=O)c1ccccc1OC(F)F`, for which the “% Inhibition” value is 2% and the Z score is on record as -0.34.
As for `FC(F)Cn1ccc(NCc2cnsc2)n1`, the “% Inhibition” value was determined as 6% and the Z score is recorded as -0.92.
On to `COc1ccc(C[C@@H](Cc2ccc3c(c2)OCO3)NC(=O)c2cccc(Cl)c2)cc1`, for which the “% Inhibition” value is listed as -3% and the Z score amounted to 0.63.
Turning to `Cc1cccc(C)c1NC(=O)Cc1csc(-n2nc(C)c(Cl)c2C)n1`, the “% Inhibition” value is on record as -12% and the Z score came to 2.22.
The corresponding values for `CO[C@@H](C)CS(=O)(=O)Nc1csnc1-c1ccccc1` are -4% and 0.63.
`Cc1ncc(CO)c(CN(Cc2ccco2)C(C)(C)CO)c1O`: the “% Inhibition” value is given as -3% and the Z score is listed as 0.29.
Take `O=C(CN1C(=O)c2cc(Cl)c(Cl)cc2C1=O)NC1CCCCC1`: the “% Inhibition” value was -6% and the Z score came to 0.83.
As to `c1cncc(-c2n[nH]cc2CNCCc2ccsc2)c1`, the “% Inhibition” value was -1% and the Z score was 0.14.
The corresponding values for `O=C(CC[C@@H]1NC(=O)c2ccccc2NC1=O)NCc1nc(-c2ccncc2)no1` are -9% and 1.1.
The corresponding values for `CC(NC(=O)[C@@H]1CCC(=O)N1)c1cc(Cl)cc(Cl)c1F` (stereo partly drawn) are 2% and -0.25.
On to `CCc1ccc(CN2CC[C@H](CNC(=O)N3CCOCC3)[C@@H](O)C2)nc1`, for which the “% Inhibition” value is -6% and the Z score was 1.2.
The corresponding values for `O=C(O)c1nn(CCCc2ccccc2)c2c1CN(C(=O)c1cccnc1)CC2` are -9% and 1.3.
For the compound `CC(C)Cc1nsc(N2CCO[C@H](c3cccs3)C2)n1`, the “% Inhibition” value turned out to be 7% and the Z score is -1.09.
In the case of `Cc1sc(C)c(S(=O)(=O)N2CCN(c3ccccc3)CC2)c1-c1cc(C(F)(F)F)on1`, the “% Inhibition” value is listed as -10% and the Z score was 1.63.
For `O=C(Nc1nc(-c2ccc3c(c2)OCO3)cs1)c1ccc(-n2cnnn2)cc1`, the “% Inhibition” value was -16% and the Z score was found to be 2.99.
Take `Cc1cnn(CCCNC(=O)N(C)[C@@H](C)c2cc(-c3ccccc3)[nH]n2)c1`: the “% Inhibition” value is -4% and the Z score is on record as 0.67.
`CNC(=O)c1cc(S(=O)(=O)c2ccc3[nH]c(Nc4cccc(C(F)(F)F)c4)nc3c2)ccn1`: the “% Inhibition” value is 0% and the Z score was 0.05.
Consider `O=C1OCC2(CCN(C/C=C/c3ccc(F)cc3)CC2)O1`, for which the “% Inhibition” value is recorded as -2% and the Z score was found to be 0.27.
As to `COc1cccc(NC(=O)CN2CCC[C@H](Cc3noc(C)n3)C2)c1`, the “% Inhibition” value is given as -15% and the Z score amounted to 1.77.
For `CC1(C(=O)NC2CC(F)(F)C2)COC1`, the “% Inhibition” value is -11% and the Z score came out at 1.34.
`CN1CCN(C(=O)CC[C@@H]2NC(=O)N(c3cccc4ccccc34)C2=O)CC1`: the “% Inhibition” value worked out at 5% and the Z score is reported as -0.58.
The corresponding values for `O=C1NC(=O)C2(CCN(C(=O)c3cccs3)CC2)N1` are -10% and 1.55.
As for `CCC(=O)N1CC[C@H](NC(=O)c2cc(COC)on2)C1`, the “% Inhibition” value was 2% and the Z score is -0.3.
For the compound `Cc1ccc(C(C)C)c(OC(=O)Cn2c(=O)sc3cccc(Cl)c32)c1`, the “% Inhibition” value is -11% and the Z score worked out at 1.53.
For the compound `Cc1cccc(C(=O)N2CCC[C@H]2c2nn(C)c(=O)n2Cc2ccccc2)c1`, the “% Inhibition” value is 0% and the Z score is -0.09.
For the compound `CCNC(=O)[C@H]1Cc2ccccc2CN1C(=O)c1ccccc1OC(F)F`, the “% Inhibition” value is -3% and the Z score was 0.41.
Regarding `CCN(CC)CC(=O)N[C@@H](C)c1ccccc1`, the “% Inhibition” value is on record as -7% and the Z score amounted to 1.29.
With `CCc1ccc(Nc2nc3ccccc3c(=O)n2-c2cccc(C)c2C)cc1`, the “% Inhibition” value is -13% and the Z score was determined as 2.24.
For the compound `Cc1cc(C(F)(F)F)nc(N[C@H]2CCCC[C@H]2n2cc(CO)nn2)n1`, the “% Inhibition” value came out at 11% and the Z score was -1.41.
As for `Cc1cc(C)n([C@@H](C)CNC(=O)Nc2cn(C)nn2)n1`, the “% Inhibition” value is recorded as -8% and the Z score was 0.91.
Take `CCCc1cc(C(=O)N(C)CC(CC)(CC)CO)n(C)n1`: the “% Inhibition” value came to 0% and the Z score was determined as 0.04.
The corresponding values for `CCOCc1nc([C@H](C)n2nc(C)cc2C)n(C2CCN(C)CC2)n1` are 15% and -2.1.
Consider `O=C(NCCc1ccco1)c1[nH]nc2c1COc1ccccc1-2`, for which the “% Inhibition” value is reported as -10% and the Z score was determined as 1.81.
Consider `CC(C)c1nnc(CN(C)CCCc2nccn2C)o1`, for which the “% Inhibition” value stood at 3% and the Z score is -0.53.
Take `CC[C@@H](Cc1ccc(C(F)(F)F)cc1)C(=O)NCc1ccnn1C`: the “% Inhibition” value is -17% and the Z score is recorded as 1.67.
The corresponding values for `CC(=O)Nc1cccc(NC(=O)c2cc3c(s2)CCCCCC3)c1` are -8% and 0.66.
Consider `Cc1cc(CNC(=O)[C@@H]2[C@@H](c3ccccc3)N(C)C(=O)[C@@H]2O)no1`, for which the “% Inhibition” value was -5% and the Z score is 0.46.
For `O=C(NCc1cccnc1)c1ccc2c(c1)NC(=O)c1ccccc1N2`, the “% Inhibition” value is -1% and the Z score turned out to be 0.24.
Turning to `O=C1NC2(CCO1)CN(C(=O)CC1CC3CCC1C3)C2` (stereo not drawn), the “% Inhibition” value was -18% and the Z score worked out at 2.36.
